{
  "source": "the supplement of paper PMC8728848",
  "assay_in_all_cases": "glycan array binding signal (z-score within array); higher = stronger binding",
  "conditions_in_all_cases": "glycan notation: IUPAC condensed, linker removed",
  "key": {"[1]": {"biological_target": "Gal(b1-4)GlcNAc(b1-3)Gal(b1-4)Glc", "outline": "(§1)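 Columns mapping to the same glycan were averaged after glycan names were converted to IUPAC-condensed notation. The data come from 3228 arrays in the Consortium for Functional Glycomics database, limited to those with an available protein sequence. Binding is reported as a within-array Z-score averaged across arrays of one protein sequence and across linkers.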"}, "[2]": {"biological_target": "Gal(b1-4)GlcNAc(b1-3)Gal(b1-4)GlcNAc", "outline": "as §1"}, "[3]": {"biological_target": "Gal(b1-4)GlcNAc(b1-3)Gal(b1-4)GlcNAc(b1-2)Man(a1-3)[Gal(b1-4)GlcNAc(b1-3)Gal(b1-4)GlcNAc(b1-2)Man(a1-6)]Man(b1-4)GlcNAc(b1-4)GlcNAc", "outline": "as §1"}, "[4]": {"biological_target": "Gal(b1-4)GlcNAc(b1-3)Gal(b1-4)GlcNAc(b1-2)Man(a1-3)[Gal(b1-4)GlcNAc(b1-3)Gal(b1-4)GlcNAc(b1-2)Man(a1-6)]Man(b1-4)GlcNAc(b1-4)[Fuc(a1-6)]GlcNAc", "outline": "as §1"}, "[5]": {"biological_target": "Gal(b1-4)GlcNAc(b1-3)Gal(b1-4)GlcNAc(b1-2)[Gal(b1-4)GlcNAc(b1-3)Gal(b1-4)GlcNAc(b1-6)]Man(a1-6)[Gal(b1-4)GlcNAc(b1-3)Gal(b1-4)GlcNAc(b1-2)Man(a1-3)]Man(b1-4)GlcNAc(b1-4)GlcNAc", "outline": "as §1"}, "[6]": {"biological_target": "Gal(b1-4)GlcNAc(b1-3)Gal(b1-4)GlcNAc(b1-2)[Gal(b1-4)GlcNAc(b1-3)Gal(b1-4)GlcNAc(b1-6)]Man(a1-6)[Gal(b1-4)GlcNAc(b1-3)Gal(b1-4)GlcNAc(b1-2)Man(a1-3)]Man(b1-4)GlcNAc(b1-4)[Fuc(a1-6)]GlcNAc", "outline": "as §1"}, "[7]": {"biological_target": "Gal(b1-4)GlcNAc(b1-3)Gal(b1-4)GlcNAc(b1-3)Gal(b1-4)GlcNAc", "outline": "as §1"}, "[8]": {"biological_target": "Gal(b1-4)GlcNAc(b1-3)Gal(b1-4)GlcNAc(b1-3)Gal(b1-4)GlcNAc(b1-2)Man(a1-3)[Gal(b1-4)GlcNAc(b1-3)Gal(b1-4)GlcNAc(b1-3)Gal(b1-4)GlcNAc(b1-2)Man(a1-6)]Man(b1-4)GlcNAc(b1-4)GlcNAc", "outline": "as §1"}, "[9]": {"biological_target": "Gal(b1-4)GlcNAc(b1-3)Gal(b1-4)GlcNAc(b1-3)Gal(b1-4)GlcNAc(b1-2)Man(a1-3)[Gal(b1-4)GlcNAc(b1-3)Gal(b1-4)GlcNAc(b1-3)Gal(b1-4)GlcNAc(b1-2)Man(a1-6)]Man(b1-4)GlcNAc(b1-4)[Fuc(a1-6)]GlcNAc", "outline": "as §1"}, "[10]": {"biological_target": "Gal(b1-4)GlcNAc(b1-3)Gal(b1-4)GlcNAc(b1-3)Gal(b1-4)GlcNAc(b1-2)[Gal(b1-4)GlcNAc(b1-3)Gal(b1-4)GlcNAc(b1-3)Gal(b1-4)GlcNAc(b1-6)]Man(a1-6)[Gal(b1-4)GlcNAc(b1-3)Gal(b1-4)GlcNAc(b1-3)Gal(b1-4)GlcNAc(b1-2)Man(a1-3)]Man(b1-4)GlcNAc(b1-4)[Fuc(a1-6)]GlcNAc", "outline": "as §1"}, "[11]": {"biological_target": "Gal(b1-4)GlcNAc(b1-3)Gal(b1-4)GlcNAc(b1-3)Gal(b1-4)GlcNAc(b1-3)Gal(b1-4)GlcNAc(b1-2)Man(a1-3)[Gal(b1-4)GlcNAc(b1-3)Gal(b1-4)GlcNAc(b1-3)Gal(b1-4)GlcNAc(b1-3)Gal(b1-4)GlcNAc(b1-2)Man(a1-6)]Man(b1-4)GlcNAc(b1-4)GlcNAc", "outline": "as §1"}, "[12]": {"biological_target": "Gal(b1-4)GlcNAc(b1-3)Gal(b1-4)GlcNAc(b1-3)Gal(b1-4)GlcNAc(b1-3)Gal(b1-4)GlcNAc(b1-2)Man(a1-3)[Gal(b1-4)GlcNAc(b1-3)Gal(b1-4)GlcNAc(b1-3)Gal(b1-4)GlcNAc(b1-3)Gal(b1-4)GlcNAc(b1-2)Man(a1-6)]Man(b1-4)GlcNAc(b1-4)[Fuc(a1-6)]GlcNAc", "outline": "as §1"}, "[13]": {"biological_target": "Gal(b1-4)GlcNAc(b1-3)Gal(b1-4)GlcNAc(b1-3)Gal(b1-4)GlcNAc(b1-3)Gal(b1-4)GlcNAc(b1-2)[Gal(b1-4)GlcNAc(b1-3)Gal(b1-4)GlcNAc(b1-3)Gal(b1-4)GlcNAc(b1-3)Gal(b1-4)GlcNAc(b1-6)]Man(a1-6)[Gal(b1-4)GlcNAc(b1-3)Gal(b1-4)GlcNAc(b1-3)Gal(b1-4)GlcNAc(b1-3)Gal(b1-4)GlcNAc(b1-2)Man(a1-3)]Man(b1-4)GlcNAc(b1-4)[Fuc(a1-6)]GlcNAc", "outline": "as §1"}, "[14]": {"biological_target": "Gal(b1-4)GlcNAc(b1-3)Gal(b1-4)GlcNAc(b1-3)Gal(b1-4)GlcNAc(b1-3)Gal(b1-4)GlcNAc(b1-3)Gal(b1-4)GlcNAc(b1-2)Man(a1-3)[Gal(b1-4)GlcNAc(b1-3)Gal(b1-4)GlcNAc(b1-3)Gal(b1-4)GlcNAc(b1-3)Gal(b1-4)GlcNAc(b1-3)Gal(b1-4)GlcNAc(b1-2)Man(a1-6)]Man(b1-4)GlcNAc(b1-4)GlcNAc", "outline": "as §1"}, "[15]": {"biological_target": "Gal(b1-4)GlcNAc(b1-3)Gal(b1-4)GlcNAc(b1-3)Gal(b1-4)GlcNAc(b1-3)Gal(b1-4)GlcNAc(b1-3)Gal(b1-4)GlcNAc(b1-2)Man(a1-3)[Gal(b1-4)GlcNAc(b1-3)Gal(b1-4)GlcNAc(b1-3)Gal(b1-4)GlcNAc(b1-3)Gal(b1-4)GlcNAc(b1-3)Gal(b1-4)GlcNAc(b1-2)Man(a1-6)]Man(b1-4)GlcNAc(b1-4)[Fuc(a1-6)]GlcNAc", "outline": "as §1"}, "[16]": {"biological_target": "Gal(b1-4)GlcNAc(b1-3)Gal(b1-4)GlcNAc(b1-3)Gal(b1-4)GlcNAc(b1-3)Gal(b1-4)GlcNAc(b1-3)Gal(b1-4)GlcNAc(b1-2)[Gal(b1-4)GlcNAc(b1-3)Gal(b1-4)GlcNAc(b1-3)Gal(b1-4)GlcNAc(b1-3)Gal(b1-4)GlcNAc(b1-3)Gal(b1-4)GlcNAc(b1-6)]Man(a1-6)[Gal(b1-4)GlcNAc(b1-3)Gal(b1-4)GlcNAc(b1-3)Gal(b1-4)GlcNAc(b1-3)Gal(b1-4)GlcNAc(b1-3)Gal(b1-4)GlcNAc(b1-2)Man(a1-3)]Man(b1-4)GlcNAc(b1-4)[Fuc(a1-6)]GlcNAc", "outline": "as §1"}, "[17]": {"biological_target": "Gal(b1-4)GlcNAc(b1-3)Gal(b1-4)GlcNAc(b1-3)Gal(b1-4)GlcNAc(b1-3)Gal(b1-4)GlcNAc(b1-3)Gal(b1-4)GlcNAc(b1-3)Gal(b1-4)GlcNAc(b1-2)Man(a1-3)[Gal(b1-4)GlcNAc(b1-3)Gal(b1-4)GlcNAc(b1-3)Gal(b1-4)GlcNAc(b1-3)Gal(b1-4)GlcNAc(b1-3)Gal(b1-4)GlcNAc(b1-3)Gal(b1-4)GlcNAc(b1-2)Man(a1-6)]Man(b1-4)GlcNAc(b1-4)GlcNAc", "outline": "as §1"}, "[18]": {"biological_target": "Gal(b1-4)GlcNAc(b1-3)Gal(b1-4)GlcNAc(b1-3)GalNAc", "outline": "as §1"}, "[19]": {"biological_target": "Gal(b1-4)GlcNAc(b1-3)Gal(b1-4)GlcNAc(b1-3)[Gal(b1-4)GlcNAc(b1-3)Gal(b1-4)GlcNAc(b1-6)]GalNAc", "outline": "as §1"}},
  "note": "The list shows a part of the results.",
  "data": [
    {"binder": "Epa3to1 (Candida glabrata) (protein) MGSSHHHHHHSSGLVPRGSHMKRELSSQNPFGYPIGCSPQDVAIIPGLTMELYSYPIVSGTPPNCYDASYVDPEYPRTGYLKRKMVGKSTGVTGNLNYKYSVEKACMVKYGNLPAGYNYNEPLTVSNFTMILYGYFKAQTTGLHTFFVNADDLLYINFGAGNAFDCCKREDSKTKLGEYVAYDIWHVDSSKNKVSLFLEKDLYYPIRMFFNNREYDSSLDLSFSVNGATDQISDFSGYLYSVPDQPDTCPAHIGYDTTCR", "values": [
      {"measurement": "glycan array binding signal (z-score)", "setting": "[1]", "result": 0.271},
      {"measurement": "glycan array binding signal (z-score)", "setting": "[2]", "result": -0.741},
      {"measurement": "glycan array binding signal (z-score)", "setting": "[3]", "result": -0.256},
      {"measurement": "glycan array binding signal (z-score)", "setting": "[4]", "result": -0.44},
      {"measurement": "glycan array binding signal (z-score)", "setting": "[5]", "result": 7.55},
      {"measurement": "glycan array binding signal (z-score)", "setting": "[6]", "result": -0.165},
      {"measurement": "glycan array binding signal (z-score)", "setting": "[7]", "result": -0.666},
      {"measurement": "glycan array binding signal (z-score)", "setting": "[8]", "result": -0.228},
      {"measurement": "glycan array binding signal (z-score)", "setting": "[9]", "result": -0.21},
      {"measurement": "glycan array binding signal (z-score)", "setting": "[10]", "result": -0.176},
      {"measurement": "glycan array binding signal (z-score)", "setting": "[11]", "result": -0.05},
      {"measurement": "glycan array binding signal (z-score)", "setting": "[12]", "result": 0.268},
      {"measurement": "glycan array binding signal (z-score)", "setting": "[13]", "result": -0.602},
      {"measurement": "glycan array binding signal (z-score)", "setting": "[14]", "result": -0.281},
      {"measurement": "glycan array binding signal (z-score)", "setting": "[15]", "result": -0.649},
      {"measurement": "glycan array binding signal (z-score)", "setting": "[16]", "result": 0.311},
      {"measurement": "glycan array binding signal (z-score)", "setting": "[17]", "result": 0.127},
      {"measurement": "glycan array binding signal (z-score)", "setting": "[18]", "result": 0.334},
      {"measurement": "glycan array binding signal (z-score)", "setting": "[19]", "result": 0.067}
    ]}
  ]
}
